Source: PubChem BioAssay (Tox21)
Inconclusive means that the source gave no clear call. Such entries were picked first, then a sample of the others. For some assays here: Potencies beside an inconclusive call are fits to weak or partial responses and may not hold up. Active and inactive are the calls of the source. Unless noted, the call rests on the fitted dose curve; in most records, active means well fitted curve in the direction sought with a large enough effect in the repeat runs; inconclusive means weak or mixed curves; inactive means no such curve, though single readings can be large; an effect the other way counts as inactive or inconclusive.

What was measured:
[1] = qHTS assay to identify small molecule that activate the aryl hydrocarbon receptor (AhR) signaling pathway - cell viability counter screen (AID 743086); further: potency means the concentration at half of the fitted maximal effect; nearly all actives have a fitted effect of over 45% in size
Summary of the method: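 HepG2-AhR-luc (HG2L7.5c1) cells, 4000/well, treated 24 h at 37 C with compound; viability measured as CellTiter-Fluor fluorescence after 30 min in the same wells as the luciferase read.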

[2] = target: Peroxisome proliferator-activated receptor gamma (Homo sapiens) (UniProt P37231); assay: qHTS assay to identify small molecule antagonists of the peroxisome proliferator-activated receptor gamma (PPARg) signaling pathway (AID 743191; calls by dose curve; further: nearly all actives have a fitted effect of over 30% in size; further: potency means the concentration at half of the fitted maximal effect); details: HEK293H PPARg-UAS-bla, beta-lactamase ratio, antagonist, 17 h; ratio activity, negative = inhibition: at 62.6 µM (top of the series) unless noted
Sequence of UniProt P37231 (P37231 whole entry, looked up): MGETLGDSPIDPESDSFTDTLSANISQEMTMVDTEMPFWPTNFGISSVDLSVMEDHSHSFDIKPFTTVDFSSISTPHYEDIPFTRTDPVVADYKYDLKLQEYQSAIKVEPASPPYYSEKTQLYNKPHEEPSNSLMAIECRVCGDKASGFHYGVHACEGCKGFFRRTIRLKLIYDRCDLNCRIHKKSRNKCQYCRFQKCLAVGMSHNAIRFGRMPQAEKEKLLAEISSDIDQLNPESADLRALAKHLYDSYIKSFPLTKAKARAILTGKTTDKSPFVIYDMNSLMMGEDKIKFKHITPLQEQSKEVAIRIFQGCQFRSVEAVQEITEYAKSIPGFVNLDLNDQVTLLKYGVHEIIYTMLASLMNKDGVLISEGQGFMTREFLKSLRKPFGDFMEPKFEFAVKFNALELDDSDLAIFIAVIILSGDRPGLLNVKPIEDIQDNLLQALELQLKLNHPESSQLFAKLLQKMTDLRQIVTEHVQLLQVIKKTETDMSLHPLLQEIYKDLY
Summary of the method: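 GeneBLAzer PPARg UAS-bla HEK293H cells, 5 h post-plating, exposed to compounds 17 h at 37C. LiveBLAzer B/G FRET substrate added for 1 h at room temperature; beta-lactamase reporter read by fluorescence intensity.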

[3] = qHTS assay for small molecule agonists of the antioxidant response element (ARE) signaling pathway (AID 743202; active means well fitted activation curve with a large enough effect in the signal ratio in the repeat runs, not every such curve was filed as active; inconclusive means weak or mixed curves, or effect the other way; inactive means no such curve, though single readings can be large or run the other way; the % refers to the signal ratio; further: potency means the concentration at half of the fitted maximal effect); details: HepG2 ARE-bla reporter, beta-lactamase FRET, 16 h; activation: at 73.3 µM (top of the series) unless noted
Summary of the method: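 HepG2 ARE-bla reporter line, 2,000 cells/well; 5 h preincubation 37 C/5% CO2; compound (DMSO) 16 h 37 C; B/G FRET substrate 2 h RT; fluorescence intensity.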

[4] = qHTS assay to identify small molecule agonists of the peroxisome proliferator-activated receptor delta (PPARd) signaling pathway - cell viability counter screen (AID 743211); details: PPARd-bla HEK293H viability, CellTiter-Glo luminescence, 17 h; activity change, negative = cytotoxicity: at 62.6 µM (top of the series) unless noted; further: nearly all actives have a fitted effect of over 55% in size; further: potency means the concentration at half of the fitted maximal effect; on activity change, negative = cytotoxicity: on the % scale 0 is the no-effect control and ±100 the full control effect
Summary of the method: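 Luminescent ATP viability assay (CellTiter-Glo, 30 min RT) in UAS-bla HEK293H cells carrying the PPAR delta reporter construct, 3000 cells/well, after a 17 h compound treatment at 37 C.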

[5] = target: Peroxisome proliferator-activated receptor delta (Homo sapiens) (UniProt Q03181); assay: qHTS assay to identify small molecule antagonists of the peroxisome proliferator-activated receptor delta (PPARd) signaling pathway (AID 743215; active means well fitted inhibition curve with a large enough effect in the signal ratio in the repeat runs, not every such curve was filed as active; inconclusive means weak or mixed curves, or effect the other way; inactive means no such curve, though single readings can be large or run the other way; the % refers to the signal ratio;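 further: cells stimulated with agonist L165041 at 300 nM final during compound exposure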; further: potency means the concentration at half of the fitted maximal effect; on ratio activity, negative = inhibition: on the % scale 0 is the no-effect control and ±100 the full control effect); details: HEK293H PPARd-UAS-bla, beta-lactamase FRET ratio, antagonist, 17 h; ratio activity, negative = inhibition: at 62 µM (top of the series) unless noted
Sequence of UniProt Q03181 (Q03181 whole entry, looked up): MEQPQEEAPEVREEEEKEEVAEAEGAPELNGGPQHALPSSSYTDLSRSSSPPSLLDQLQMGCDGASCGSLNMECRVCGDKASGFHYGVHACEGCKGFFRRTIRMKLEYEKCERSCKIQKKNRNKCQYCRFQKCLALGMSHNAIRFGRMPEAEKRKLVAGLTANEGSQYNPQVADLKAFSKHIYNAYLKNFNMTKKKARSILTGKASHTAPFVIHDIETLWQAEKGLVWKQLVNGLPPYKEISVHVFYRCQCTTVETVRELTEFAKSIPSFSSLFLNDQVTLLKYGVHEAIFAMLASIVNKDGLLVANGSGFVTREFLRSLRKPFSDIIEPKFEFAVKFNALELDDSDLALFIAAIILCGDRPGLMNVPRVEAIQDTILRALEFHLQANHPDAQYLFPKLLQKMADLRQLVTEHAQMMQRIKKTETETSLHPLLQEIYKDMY
Summary of the method: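 HEK293H GeneBLAzer PPARd UAS-bla reporter cells; cpd + L165041 300 nM final, 17 h 37 C; LiveBLAzer B/G FRET substrate 2 h RT; fluorescence intensity read-out. Antagonist mode.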

[6] = target: Bile acid receptor (Homo sapiens) (UniProt Q96RI1); assay: qHTS assay to identify small molecule antagonists of the farnesoid-X-receptor (FXR) signaling pathway (AID 743217; active means well fitted inhibition curve with a large enough effect in the signal ratio in the repeat runs, not every such curve was filed as active; inconclusive means weak or mixed curves, or effect the other way; inactive means no such curve, though single readings can be large or run the other way; the % refers to the signal ratio; further: potency means the concentration at half of the fitted maximal effect; on activity change, negative = inhibition: on the % scale 0 is the no-effect control and ±100 the full control effect); details: HEK293T FXR-UAS-bla, beta-lactamase ratio, CDCA-stimulated, 16 h; activity change, negative = inhibition: at 62.6 µM (top of the series) unless noted
Sequence of UniProt Q96RI1 (Q96RI1 whole entry, looked up): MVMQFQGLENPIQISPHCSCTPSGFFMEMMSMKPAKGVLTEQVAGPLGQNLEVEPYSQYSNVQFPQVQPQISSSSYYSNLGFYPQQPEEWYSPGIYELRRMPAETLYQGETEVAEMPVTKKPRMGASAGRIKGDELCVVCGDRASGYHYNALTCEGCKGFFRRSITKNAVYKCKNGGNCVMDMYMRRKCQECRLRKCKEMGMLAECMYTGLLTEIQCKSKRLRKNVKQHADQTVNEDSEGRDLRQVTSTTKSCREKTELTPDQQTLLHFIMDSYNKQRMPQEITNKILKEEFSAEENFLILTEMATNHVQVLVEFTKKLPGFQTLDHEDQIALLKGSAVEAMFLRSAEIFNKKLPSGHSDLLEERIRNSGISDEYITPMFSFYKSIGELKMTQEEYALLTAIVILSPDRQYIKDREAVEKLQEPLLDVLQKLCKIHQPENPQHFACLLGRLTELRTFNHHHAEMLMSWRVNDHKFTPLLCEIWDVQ
Summary of the method: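 Read-out: beta-lactamase FRET fluorescence (LiveBLAzer B/G substrate, 2 h, room temperature) in GeneBLAzer FXR-UAS-bla HEK 293T cells. Compounds were co-dosed with 50 uM chenodeoxycholic acid (final) and incubated 16 h at 37 °C.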

[7] = qHTS assay to identify small molecule agonists of the farnesoid-X-receptor (FXR) signaling pathway - cell viability counter screen (AID 743218); details: FXR-bla HEK293T viability, CellTiter-Glo luminescence, 16 h; viability change, negative = cytotoxic: at 62.6 µM (top of the series) unless noted; further: potency means the concentration at half of the fitted maximal effect; nearly all actives have a fitted effect of over 45% in size
Summary of the method: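 Luminescence from CellTiter-Glo, read after 30 min at RT, reports viability of GeneBLAzer FXR-UAS-bla HEK 293T cells treated 16 h with compounds in the wells used for the beta-lactamase reporter.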

[8] = target: Vitamin D3 receptor (Homo sapiens) (UniProt P11473); assay: qHTS assay to identify small molecule antagonists of the vitamin D receptor (VDR) signaling pathway (AID 743223; active means well fitted inhibition curve with a large enough effect in the signal ratio in the repeat runs, not every such curve was filed as active; inconclusive means weak or mixed curves, or effect the other way; inactive means no such curve, though single readings can be large or run the other way; the % refers to the signal ratio; further: potency means the concentration at half of the fitted maximal effect); details: VDR-UAS-bla HEK293T, beta-lactamase FRET ratio, 16 h; activity change, negative = inhibition: at 61 µM (top of the series) unless noted
Sequence of UniProt P11473 (P11473 whole entry, looked up): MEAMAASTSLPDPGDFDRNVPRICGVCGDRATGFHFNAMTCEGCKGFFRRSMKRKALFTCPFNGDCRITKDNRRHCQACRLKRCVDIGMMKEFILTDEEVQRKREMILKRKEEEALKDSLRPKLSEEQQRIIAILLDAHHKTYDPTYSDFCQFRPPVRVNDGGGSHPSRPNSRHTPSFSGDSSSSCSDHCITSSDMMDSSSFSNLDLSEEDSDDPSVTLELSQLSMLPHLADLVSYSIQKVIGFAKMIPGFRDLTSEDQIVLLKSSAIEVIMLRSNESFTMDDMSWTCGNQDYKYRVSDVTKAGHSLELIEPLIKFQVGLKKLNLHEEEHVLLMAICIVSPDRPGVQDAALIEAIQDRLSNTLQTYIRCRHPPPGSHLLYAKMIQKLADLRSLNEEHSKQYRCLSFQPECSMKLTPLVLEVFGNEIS
Summary of the method: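 Agonist 1alpha,25-dihydroxyvitamin D3 (3 nM in well) was added with each compound to VDR-bla cells preincubated 4 h. Cells stood 16 h at 37C, then FRET substrate 2 h at room temperature; fluorescence intensity recorded.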

[9] = target: Vitamin D3 receptor (Homo sapiens) (UniProt P11473); assay: qHTS assay to identify small molecule agonists of the vitamin D receptor (VDR) signaling pathway (AID 743222; calls by dose curve; further: potency means the concentration at half of the fitted maximal effect); details: HEK293T VDR-UAS-bla, beta-lactamase FRET ratio, 16 h; activation: at 63.5 µM (top of the series) unless noted
Summary of the method: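 Beta-lactamase reporter readout (LiveBLAzer B/G FRET, 2 h RT) in VDR-bla cells after 16 h compound treatment at 37C, 5% CO2; cells pre-incubated 4 h before pin transfer of DMSO solutions.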

[10] = target: Peroxisome proliferator-activated receptor delta (Homo sapiens) (UniProt Q03181); assay: qHTS assay to identify small molecule agonists of the peroxisome proliferator-activated receptor delta (PPARd) signaling pathway (AID 743212; calls by dose curve; further: on the % scale 0 is the no-effect control and ±100 the full control effect); details: HEK293H PPARd-UAS-bla, beta-lactamase FRET ratio, 17 h; activation: at 62.6 µM (top of the series) unless noted
Summary of the method: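 Read-out: beta-lactamase FRET fluorescence after 2 h room-temperature incubation with LiveBLAzer B/G substrate. Cells were HEK293H carrying a UAS-bla reporter for PPARd, treated at 37 C with DMSO-dissolved compounds.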

[11] = qHTS assay to identify small molecule antagonists of the peroxisome proliferator-activated receptor delta (PPARd) signaling pathway - cell viability counter screen (AID 743213); details: PPARd-bla HEK293H viability, CellTiter-Glo luminescence, 17 h; viability change, negative = cytotoxic: at 62 µM (top of the series) unless noted; further: potency means the concentration at half of the fitted maximal effect; nearly all actives have a fitted effect of over 50% in size
Summary of the method: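 Cytotoxicity counter screen: CellTiter-Glo luminescence read 30 min after addition, in the same wells as the reporter assay. There, PPARd UAS-bla HEK293H cells (3000/well) were treated 17 h at 37 C with compound and 300 nM L165041.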

[12] = target: Bile acid receptor (Homo sapiens) (UniProt Q96RI1); assay: qHTS assay to identify small molecule agonists of the farnesoid-X-receptor (FXR) signaling pathway (AID 743220; active means well fitted activation curve with a large enough effect in the signal ratio in the repeat runs, not every such curve was filed as active; inconclusive means weak or mixed curves, or effect the other way; the % refers to the signal ratio; further: potency means the concentration at half of the fitted maximal effect); details: HEK293T FXR-UAS-bla, beta-lactamase FRET ratio, 16 h; activation: at 62.6 µM (top of the series) unless noted
Summary of the method: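 FXR-UAS-bla HEK 293T cells carrying a UAS-driven beta-lactamase reporter were plated for 5 h at 37C/5% CO2, then exposed to DMSO-dissolved Tox21 10K compounds for 16 h at 37C. A LiveBLAzer B/G FRET substrate was loaded for 2 h at room temperature before fluorescence reading.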

[13] = qHTS assay for small molecule activators of the heat shock response signaling pathway (AID 743210; active means well fitted activation curve with a large enough effect in the signal ratio in the repeat runs, with a control signal flat, not every such curve was filed as active; inconclusive means weak or mixed curves; the % refers to the signal ratio; further: potency means the concentration at half of the fitted maximal effect); details: HeLa HSE-bla reporter, beta-lactamase ratio, 5 h; activation: at 62.6 µM (top of the series) unless noted
Summary of the method: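 Beta-lactamase reporter read-out: FRET substrate fluorescence after 2.5 h at RT, following 5 h compound treatment at 37 C of HeLa cells carrying HSE-driven bla reporter; quantitative HTS format.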

[14] = qHTS assay to identify small molecule antagonists of the farnesoid-X-receptor (FXR) signaling pathway - cell viability counter screen (AID 743221; active means well fitted cell-killing curve with a large enough effect in the repeat runs, not every such curve was filed as active; inconclusive means weak or mixed curves, or effect the other way; inactive means no such curve, though single readings can be large or run the other way; further: potency means the concentration at half of the fitted maximal effect; nearly all actives have a fitted effect of over 50% in size); details: FXR-bla HEK293T viability, CellTiter-Glo luminescence, 16 h; activity change, negative = cytotoxicity: at 62.6 µM (top of the series) unless noted
Summary of the method: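 In GeneBLAzer FXR-UAS-bla HEK 293T cells stimulated with 50 uM chenodeoxycholic acid (final), compounds acted for 16 h at 37 C. Viability was assessed afterwards by CellTiter-Glo luminescence.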

[15] = qHTS assay to identify small molecule agonists of the vitamin D receptor (VDR) signaling pathway - cell viability counter screen (AID 743224); details: VDR-bla HEK293T viability, CellTiter-Glo luminescence, 16 h; activity change, negative = cytotoxicity: at 62.6 µM (top of the series); further: potency means the concentration at half of the fitted maximal effect; nearly all actives have a fitted effect of over 50% in size
Summary of the method: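 Cytotoxicity counter screen: VDR-bla cells, 16 h compound exposure at 37C, 5% CO2; CellTiter-Glo luminescence, 30 min RT, same wells as bla read.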
Tags describe the fitted curve by direction and shape or compound fluorescence and quenching.

O=C1Cc2ccccc2N1c1c(Cl)cccc1Cl
inactive: Potency [5] | Potency [6]
inconclusive: Potency [1] 68.6 µM [falling, partial curve, poor fit] | Potency [2] 61.6 µM [inhibitor] | Potency [3] 43.3 µM [rising, partial curve] | Potency [4] 54.9 µM [cytotoxic, partial curve, poor fit] | Potency [7] 1.55 µM [cytotoxic, full curve, poor fit] | Potency [8] 1.74 µM [fluorescent, full curve, poor fit]

CC(C)c1cccc(C(C)C)c1NC(=O)NS(=O)(=O)c1cc(C(C)(C)O)co1
inconclusive: Potency [1] 17.2 µM [rising, full curve, poor fit] | Potency [3] 27.3 µM [rising, partial curve] | activity change, negative = inhibition [8] -0.777%
inactive: Potency [4]

O=C(Nc1ccc2c(O)c(N=Nc3ccc(N=Nc4ccc(S(=O)(=O)O)cc4)cc3)c(S(=O)(=O)O)cc2c1)c1ccccc1
active: Potency [1] 19.3 µM
inactive: Potency [9]
inconclusive: Potency [3] 4.86 µM [rising, full curve]

C[C@@]12C(=O)OC(=O)[C@]1(C)C1CCC2O1
inconclusive: Potency [3] 3.35 µM [falling, full curve] | Potency [4] 10.6 µM [cytotoxic, partial curve] | activation [10] -9.58% | Potency [5] 26.6 µM [rising, single point] | Potency [6] 9.44 µM [rising, full curve] | Potency [12] 33.5 µM [rising, single point] | Potency [9] 9.44 µM [rising, partial curve] | Potency [8] 19 µM [rising, partial curve]
active: Potency [1] 0.569 µM | Potency [11] 8.41 µM | Potency [7] 11.9 µM

O=C(Nc1cccc([N+](=O)[O-])c1)c1cc2ccccc2cc1O
inconclusive: Potency [1] 10.9 µM [falling, full curve] | ratio activity, negative = inhibition [2] -17.1% | Potency [13] 11.4 µM | Potency [4] 1.1 µM [cytotoxic, full curve] | Potency [11] 0.347 µM [cytotoxic, partial curve, poor fit] | Potency [5] 43.6 µM [inhibitor, partial curve, poor fit] | Potency [6] 6.16 µM [inhibitor, partial curve] | Potency [12] 11 µM [falling, partial curve, poor fit] | Potency [14] 49 µM [falling, partial curve, poor fit] | activity change, negative = inhibition [8] -32.8%
active: Potency [3] 1.72 µM | Potency [15] 1.23 µM
